{"source": "paper PMC4336329", "about": "(PLoS ONE, 2015)", "note": "The campaign covered roughly 310,000 compounds. About 14,000 (4.5%) showed an effect of 50% or more. The effect is printed as a negative number. Some of the results follow.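 Further: peak tail current of the secondary pulse compared with the same well before compound.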"}
{"molecular_target": "human ether-à-go-go-related gene (hERG) potassium channel (human, UniProt Q12809)", "sequence (Q12809 whole entry, looked up)": "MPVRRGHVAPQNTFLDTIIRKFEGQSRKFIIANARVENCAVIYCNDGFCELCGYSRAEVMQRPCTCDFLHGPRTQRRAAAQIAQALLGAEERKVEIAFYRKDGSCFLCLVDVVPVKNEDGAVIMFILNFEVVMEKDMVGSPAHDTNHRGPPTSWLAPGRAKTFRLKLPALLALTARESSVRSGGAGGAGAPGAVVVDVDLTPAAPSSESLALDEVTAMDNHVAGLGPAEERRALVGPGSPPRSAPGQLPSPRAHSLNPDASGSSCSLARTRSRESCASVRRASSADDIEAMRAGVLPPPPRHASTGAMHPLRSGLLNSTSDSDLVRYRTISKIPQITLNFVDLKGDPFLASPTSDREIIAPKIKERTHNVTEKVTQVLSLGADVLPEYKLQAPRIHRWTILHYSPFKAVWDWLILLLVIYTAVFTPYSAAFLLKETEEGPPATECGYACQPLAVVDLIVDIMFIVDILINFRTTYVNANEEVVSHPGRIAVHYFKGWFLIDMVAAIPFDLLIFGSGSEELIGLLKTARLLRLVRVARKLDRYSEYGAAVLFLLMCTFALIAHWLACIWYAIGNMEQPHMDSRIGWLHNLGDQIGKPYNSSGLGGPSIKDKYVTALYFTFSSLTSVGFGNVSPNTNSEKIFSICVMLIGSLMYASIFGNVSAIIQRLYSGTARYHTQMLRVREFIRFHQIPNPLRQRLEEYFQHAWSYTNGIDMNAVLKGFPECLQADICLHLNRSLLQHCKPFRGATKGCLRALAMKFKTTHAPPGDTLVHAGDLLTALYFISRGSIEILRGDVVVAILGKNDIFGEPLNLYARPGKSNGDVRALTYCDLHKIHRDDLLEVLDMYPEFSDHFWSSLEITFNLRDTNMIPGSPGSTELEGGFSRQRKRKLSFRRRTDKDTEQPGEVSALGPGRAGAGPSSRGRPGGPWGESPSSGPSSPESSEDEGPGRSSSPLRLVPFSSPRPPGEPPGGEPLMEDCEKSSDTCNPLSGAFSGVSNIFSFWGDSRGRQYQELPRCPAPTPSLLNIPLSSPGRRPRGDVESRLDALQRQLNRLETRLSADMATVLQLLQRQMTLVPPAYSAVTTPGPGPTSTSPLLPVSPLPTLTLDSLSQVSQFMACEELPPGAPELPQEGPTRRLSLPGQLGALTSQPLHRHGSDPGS", "assay": "primary screen, population patch clamp on CHO cells stably expressing hERG", "units": {"hERG current change (%, negative = inhibition) at 10uM": "%"}}
{"compound": "COc1ccccc1NC(=O)Nc1ccc(CC#N)cc1", "hERG current change (%, negative = inhibition) at 10uM": 3.25}
{"compound": "O=C(N/N=C/c1cc(Br)c(O)c(Br)c1)c1cc2c(ccc3ccccc32)o1", "hERG current change (%, negative = inhibition) at 10uM": 2.81}
{"compound": "CC(=O)c1ccc(S(=O)(=O)N2CCC(NC(=O)c3ccccc3)CC2)cc1", "hERG current change (%, negative = inhibition) at 10uM": 15.2}
{"compound": "N#Cc1c(-c2ccc(Cl)cc2)c(C#N)c(=O)n(N)c1N", "hERG current change (%, negative = inhibition) at 10uM": 0.12}
{"compound": "Cc1ccc(NS(=O)(=O)c2c(C)noc2C)cc1", "hERG current change (%, negative = inhibition) at 10uM": -55.1}
{"compound": "COc1ccccc1NC(=O)CSc1nc2sc3c(c2c(=O)n1-c1ccccc1)CCN(C)C3", "hERG current change (%, negative = inhibition) at 10uM": -26}
{"compound": "O=C(CSc1nc2ccccc2n1CC(=O)N1CCCCC1)N1CCCCC1", "hERG current change (%, negative = inhibition) at 10uM": -26.6}
{"compound": "COc1ccccc1/C=C1\\SC(=S)N(CCC(=O)Nc2nnc(C)s2)C1=O", "hERG current change (%, negative = inhibition) at 10uM": 16.3}
{"compound": "O=C1CC(c2cccc(Cl)c2)CC(O)=C1C=NCCCO", "note": "(stereo not drawn)", "hERG current change (%, negative = inhibition) at 10uM": -0.247}
{"compound": "O=C(N=C1SC2CS(=O)(=O)CC2N1c1cccc(Cl)c1)C1CCCO1", "note": "(stereo not drawn)", "hERG current change (%, negative = inhibition) at 10uM": 7.77}
{"compound": "CCOC(=O)c1cc2sc(C)cc2n1CC(=O)N1CCc2ccccc21", "hERG current change (%, negative = inhibition) at 10uM": 1.44}
{"compound": "CCCN(CCC)CCCNC(=O)Cn1cnc2sc(C)c(S(=O)(=O)N3CCOCC3)c2c1=O", "hERG current change (%, negative = inhibition) at 10uM": 23.6}
{"compound": "COc1ccc(N2C(=NC(=O)C3CCCCC3)SC3CS(=O)(=O)CC32)c(OC)c1", "note": "(stereo not drawn)", "hERG current change (%, negative = inhibition) at 10uM": -7.61}
{"compound": "Cn1c(=O)oc2cc(S(=O)(=O)NCCN3CCc4ccccc4C3)ccc21", "hERG current change (%, negative = inhibition) at 10uM": -6.67}
{"compound": "NC(=O)NS(=O)(=O)Oc1ccccc1", "hERG current change (%, negative = inhibition) at 10uM": 14.1}
{"compound": "Cl.NS(=O)(=O)c1ccc(CCNCc2cccs2)cc1", "hERG current change (%, negative = inhibition) at 10uM": 4.04}
{"compound": "O=C(CN1CCC(Cc2ccccc2)CC1)NCCc1ccc(F)cc1", "hERG current change (%, negative = inhibition) at 10uM": -32.6}
{"compound": "O=C(C1CCCN(S(=O)(=O)c2ccc(F)cc2)C1)N1CCCCC1", "note": "(stereo not drawn)", "hERG current change (%, negative = inhibition) at 10uM": 6.09}
{"compound": "Cc1nc(C)n(C(C)CNC(=O)c2ccco2)n1", "note": "(stereo not drawn)", "hERG current change (%, negative = inhibition) at 10uM": 9.18}
{"compound": "CCC(C)(C)NC(=O)CSc1nc(Cc2ccccc2)nc2ccccc12", "hERG current change (%, negative = inhibition) at 10uM": 11.5}
{"compound": "CN1CCN(S(=O)(=O)c2cccc(C(=O)Nc3ccccc3N3CCCC3)c2)CC1", "hERG current change (%, negative = inhibition) at 10uM": -17.2}
{"compound": "COc1cccc(C(=O)C2CN(c3ccccc3)CC2c2ccc(Cl)cc2)c1", "note": "(stereo not drawn)", "hERG current change (%, negative = inhibition) at 10uM": 5.04}
{"compound": "O=C(CN1CCN(S(=O)(=O)c2ccc(F)c(Cl)c2)CC1)N1CCNC1=O", "hERG current change (%, negative = inhibition) at 10uM": -1.79}
{"compound": "O=C(NCCC1=CCCCC1)C(=O)NCc1ccccc1Cl", "hERG current change (%, negative = inhibition) at 10uM": 3.98}
{"compound": "COc1ccc(-c2cc(C(=O)OCC(=O)Nc3cc(C)on3)c3ccccc3n2)cc1OC", "hERG current change (%, negative = inhibition) at 10uM": 6.5}
{"compound": "O=C(Nc1scc(-c2ccccc2)c1C(=O)O)c1ccco1", "hERG current change (%, negative = inhibition) at 10uM": -0.991}
{"compound": "Cc1ccc(/C=C(/C#N)C(=O)NC(=O)Oc2ccccc2)cc1", "hERG current change (%, negative = inhibition) at 10uM": 12.4}
{"compound": "CN(C(=O)CN1C(=O)S/C(=C\\c2ccccc2)C1=O)C1CCS(=O)(=O)C1", "note": "(stereo not drawn)", "hERG current change (%, negative = inhibition) at 10uM": 2.1}
{"compound": "COc1ccccc1NC(=O)C(C)OC(=O)CN1C(=O)C2CC=CCC2C1=O", "note": "(stereo not drawn)", "hERG current change (%, negative = inhibition) at 10uM": -39.2}
{"compound": "CSC(=Nc1ccccc1)c1c(O)n(C)c(=O)n(C)c1=O", "hERG current change (%, negative = inhibition) at 10uM": 1.79}
{"compound": "Cc1ccc(OCC(=O)Nc2ccc(N3CCN(C(=O)c4ccco4)CC3)cc2)cc1C", "hERG current change (%, negative = inhibition) at 10uM": -22}
{"compound": "Cc1ccccc1-n1ccnc1SCC(=O)NCC1CCCO1", "note": "(stereo not drawn)", "hERG current change (%, negative = inhibition) at 10uM": 15.3}
{"compound": "Cc1ccc(-c2cc3ccccc3nc2N)cc1", "hERG current change (%, negative = inhibition) at 10uM": 6.94}
{"compound": "COc1ccc(C2(c3ccc(OC(C)=O)cc3OC(C)=O)CC(c3ccccc3)NC(=S)N2)cc1", "note": "(stereo not drawn)", "hERG current change (%, negative = inhibition) at 10uM": -50.2}
{"compound": "O=C(OCC(=O)N1CCN(C(=O)c2ccco2)CC1)c1cccc(O)c1", "hERG current change (%, negative = inhibition) at 10uM": 13.3}
{"compound": "COc1ccc(C2=NS(=O)(=O)N(C)C(C(=O)Nc3ccc4c(c3)OCO4)=C2)cc1", "hERG current change (%, negative = inhibition) at 10uM": -4.37}
{"compound": "CC(C)C(=O)N(c1ccc2oc(=O)sc2c1)S(=O)(=O)c1cccs1", "hERG current change (%, negative = inhibition) at 10uM": 12.8}
{"compound": "CCCn1c(SCC#N)nc2c(c1=O)C1(CCCC1)Cc1ccccc1-2", "hERG current change (%, negative = inhibition) at 10uM": 8.66}
{"compound": "Cc1occc1C(=O)Nc1c(F)c(F)c(F)c(F)c1F", "hERG current change (%, negative = inhibition) at 10uM": -7.14}
{"compound": "CCCc1[nH]c2ccc(C(=O)OC)cc2c1CCC", "hERG current change (%, negative = inhibition) at 10uM": 13.7}
{"compound": "COc1ccc(C2CC(=O)n3c(nc4ccccc43)S2)cc1OC", "note": "(stereo not drawn)", "hERG current change (%, negative = inhibition) at 10uM": 13.7}
{"compound": "N#Cc1cccc(NC(=O)Cn2cnc(S(=O)(=O)N3CCc4ccccc43)c2)c1", "hERG current change (%, negative = inhibition) at 10uM": -3.85}
{"compound": "COc1ccc(C(NCC(=O)NC(C)c2ccc(Cl)cc2)c2ccccc2)cc1", "note": "(stereo not drawn)", "hERG current change (%, negative = inhibition) at 10uM": 12}
{"compound": "CCOc1cc(/C=C2/C(=N)N3C(=NC2=O)SN=C3S(=O)(=O)CC)ccc1OC(=O)c1ccco1", "hERG current change (%, negative = inhibition) at 10uM": 5.22}
{"compound": "CCOc1c(Cl)cc(CNC(C)C(O)c2ccccc2)cc1OC.Cl", "note": "(stereo not drawn)", "hERG current change (%, negative = inhibition) at 10uM": -11.8}
{"compound": "Cc1cc(C)c(C)c(OCCCN(C)C)c1.O=C(O)C(=O)O", "hERG current change (%, negative = inhibition) at 10uM": -20.3}
{"compound": "COc1cc2c(-c3ccc4cc[nH]c4c3)c(-c3ccsc3)oc(=O)c2cc1OC", "hERG current change (%, negative = inhibition) at 10uM": 10.2}
{"compound": "CCNC(=S)N1CCN(CCN=CC2=C(O)CC(C)(C)CC2=O)CC1", "hERG current change (%, negative = inhibition) at 10uM": -9.75}
{"compound": "COc1ccc(NC(=O)c2cc(-c3cccs3)on2)cc1OC", "hERG current change (%, negative = inhibition) at 10uM": 6.67}
{"compound": "Fc1cccc(COc2ccccc2C(=S)N2CCCC2)c1", "hERG current change (%, negative = inhibition) at 10uM": 6.27}
{"compound": "CCOc1ccc(S(=O)(=O)Nc2ccc(C(=O)NN)cc2)cc1", "hERG current change (%, negative = inhibition) at 10uM": 3.92}
{"compound": "Cc1ccc2c(c1)N(CC(=O)NCCCN1CCOCC1)C(=O)c1cccnc1O2", "hERG current change (%, negative = inhibition) at 10uM": 0.529}
{"compound": "c1ccc(CSCc2ccccc2)cc1", "hERG current change (%, negative = inhibition) at 10uM": 0.734}
{"compound": "N=C1C(c2nc3ccccc3c(=O)[nH]2)=C(O)CN1CCO", "hERG current change (%, negative = inhibition) at 10uM": 16.3}
{"compound": "COc1ccc(NC(=O)N2CCCC2C(=O)NC2CCCC2)cc1", "note": "(stereo not drawn)", "hERG current change (%, negative = inhibition) at 10uM": 17.2}
{"compound": "O=C(NNc1nc2c(F)cccc2s1)c1cc(=O)c2ccccc2o1", "hERG current change (%, negative = inhibition) at 10uM": 12.1}
{"compound": "COc1cccc(-n2c(SCC(=O)N3CCc4ccccc43)nnc2-c2c[nH]c3ccccc23)c1", "hERG current change (%, negative = inhibition) at 10uM": 6.16}
